The list shows a part of the results.
System: T1, C. trachomatis L2/434/Bu expressing GFP (CTL2-GFP)
T1 construct: L2/434/Bu GFP intracellular growth in HeLa cells
Design: species or system HeLa; C. trachomatis total inclusion area by high-content imaging, normalised to DMSO
Conditions: total inclusion area; 28.5 h, 10 µM; inhibitor
Procedure, shortened: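 High-content images of fixed, Hoechst-stained infected cultures supply inclusion area and count (growth) plus nuclei number (viability), complementing bulk GFP/resorufin fluorescence. MIC determination is unchanged from the primary assay.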

Structure (SMILES) | % of control remaining
CC(C)c1ccc(-c2cncc(NCCCO)n2)cc1 [CBK037937] | 113.131
NC(=O)c1ccccc1NC(=O)CN(c1cccc(Br)c1)S(=O)(=O)c1ccccc1 [CBK265263] | 95.1787
Cc1cc(OCC(=O)O)c(C)c2c1CC[C@@H]([C@H](C)C(=O)N1CCC(O)CC1)C2 [CBK289433] | 109.052
N#Cc1c(NC(=O)C(=O)NCc2ccccn2)sc2c1CCCC2 [CBK269360] | 95.2615
COc1cc(OC)c(OC)cc1CN1CCN(Cc2ccco2)CC1 [CBK074509G] | 100.339
CC(C)(C)C(=O)Nc1cccc(OC(F)(F)C(F)Cl)c1 (stereo not drawn) [CBK018091] | 87.2455
COc1ccccc1-c1cccc(NCC(c2cccnc2)N(C)C)n1 (stereo not drawn) [CBK037770] | 144.497
Cn1ncc2c1CCCN(C(=O)c1cccc(C(F)(F)F)c1)C2 [CBK282252] | 98.5118
CN(C)S(=O)(=O)Nc1ccc2c(ccn2Cc2ccccc2)c1 [CBK155765] | 73.044
Cc1cccn2cc(CSc3nnc4[nH]c5ccccc5n34)nc12 [CBK296996] | 100.9
CCOc1ccc(S(=O)(=O)N2CCC(C(=O)NCCO)CC2)cc1 [CBK269817] | 103.596
CCc1nc2c(OCC3CCCCO3)cccn2c1N(C)C(=O)c1ccc2c(c1)OCO2 (stereo not drawn) [CBK147860] | 129.956
CC(C)(C)OC(=O)N[C@@H]1C(=O)OC(C(O)CO)[C@@H]1O (stereo partly drawn) [CBK008178] | 152.251
Cc1ccc(C(=O)O)cc1NC(=S)NC(=O)c1ccc(-c2ccccc2)cc1 [CBK264997] | 110.11
Cc1cc(C)n(-c2ccnc(NCc3cccnc3)n2)n1 [CBK288614] | 77.5708
O=C(CC1CCCCC1)N1CCCC1c1n[nH]cc1-c1ccncc1 (stereo not drawn) [CBK283429] | 81.9155
CCOCCN1C[C@@H](C(F)(F)F)[C@H](C(=O)O)C1 [CBK287033] | 121.49
O=C1OC(c2ccco2)=N/C1=C/c1ccccc1OC(=O)c1ccco1 [CBK263980] | 99.708
COCCNC(=O)c1ccc(-c2cc(C(C)C)ccc2OC)nc1NCC1CC1 [CBK106256] | 90.0827
CCN(C(=O)c1cc(C)nc2ccccc12)C1CCN(C)CC1 [CBK281920] | 90.8078
COc1ccc(Nc2ccc(-c3cnc(OC)nc3OC)cn2)c(C)c1 [CBK036827] | 110.774
CC(C)Cn1ncc2cc(C(=O)Nc3cccnc3N(C)C)cnc21 [CBK304891] | 40.2966
O=C(O)c1cc(C(=O)O)cc(N2C(=O)c3ccc(-c4ccc5c(c4)C(=O)N(c4cc(C(=O)O)cc(C(=O)O)c4)C5=O)cc3C2=O)c1 [CBK261331] | 116.942
NS(=O)(=O)c1ccc(NC(=S)N2CCN(CCO)CC2)cc1 [CBK265891] | 103.226
Fc1ccc(SCCc2ccccn2)cc1 [CBK026491G] | 44.7393
O=c1[nH]cc(S(=O)(=O)Nc2ccccc2)c(=O)[nH]1 [CBK287703] | 84.8425

Structure (SMILES) | % of control remaining
CC(=O)NC(c1nccs1)C1CCCN(C(=O)C2CCCCC2)C1 (stereo not drawn) [CBK282170] | 59.9596
O=C(Cn1cccc(C(=O)Nc2ccc(F)cc2)c1=O)Nc1nc2c(s1)CCCCC2 [CBK286055] | 105.946
NC(=O)c1ccc(NC(=O)COc2ccccc2Cl)cc1 [CBK262961] | 86.117
COCC(=O)N1CCC2(C/C=C/C[C@H]3COCC[C@@H]3NC(=O)CNC2=O)CC1 [CBK292158] | 77.9766
COc1cc2[nH]c(=O)c(C(=O)NCCc3ccc(Cl)cc3)c(O)c2cc1OC [CBK159986] | 49.5831
CN1[C@@H](CCC(=O)N2CCc3ccccc32)CNC(=O)[C@@H]2[C@H]1CCN2Cc1ccc(O)cc1 [CBK289021] | 125.84
O=C1CNC(=O)C2(C/C=C/C[C@H]3COCC[C@@H]3N1)CCN(CC(=O)N1CCCCC1)CC2 [CBK292137] | 73.1496
CSc1ccc(S(=O)(=O)NCCSCc2ccc(C)cc2)cc1 [CBK268510] | 74.9471
CCN1CCN(Cc2c(C)nc3ccc(C)cc3c2O)CC1 [CBK263699] | 106.762
Cc1nc2ccc(C(=O)NC3CCCOC3)cc2s1 (stereo not drawn) [CBK282509] | 103.52
CN1CCN(C(=O)CC[C@@H]2CNC(=O)[C@@H]3C[C@H](NC(=O)c4cccs4)CN23)CC1 [CBK289013] | 93.9472
O=C(CSc1nc[nH]n1)Nc1ccccc1[N+](=O)[O-] [CBK265005] | 101.789
COc1cc(NS(=O)(=O)c2ccc(NC(=O)c3cccc4ccccc34)cc2)nc(OC)n1 [CBK262465] | 100.516
COC(=O)c1cc(-c2cccnc2)[nH]n1 [CBK268945] | 96.6371
COc1ccc(Nc2ccc(-c3cccc(N(C)C)c3)cn2)cn1 [CBK037588] | 104.505
C=CCOc1ccc(-c2nnn(CC(=O)O)n2)cc1 [CBK269772] | 109.969
CCOC(=O)C1(Cc2cc(-c3ccccc3)no2)CCNCC1 [CBK284924] | 85.2462
O=C(O)CCCCCNc1ccc(C(F)(F)F)cc1[N+](=O)[O-] [CBK286707] | 111.713
Cc1nc2c(OCCOc3ccc(F)cc3)cccn2c1N(C)C(=O)CCC1CCCC1 [CBK147198] | 132.433
c1ccc(-c2ccc(COc3cncc(N4CCNCC4)n3)s2)nc1 [CBK008960G] | 117.613
CC1CCCCC12NC(=O)N(Cc1nnc(-c3cccs3)o1)C2=O (stereo not drawn) [CBK306205] | 16.1813
CC(NC(=O)N1CCC1)c1cccc(S(N)(=O)=O)c1 (stereo not drawn) [CBK306357] | 68.4762
O=C(Nc1cccc([N+](=O)[O-])c1)c1ccc2nc(-c3ccccn3)c(-c3ccccn3)nc2c1 [CBK265137] | 112.567
CCOC(=O)c1cnc(C(C)(C)C)nc1O [CBK018470] | 75.9411
CN(CC(=O)N1CCN(Cc2ccc3c(c2)OCO3)CC1)S(=O)(=O)c1ccccc1 [CBK265791] | 94.5587
O=C(Nc1scc(-c2ccc(-c3ccccc3)cc2)c1C(=O)O)c1ccco1 [CBK266156] | 85.828

Structure (SMILES) | % of control remaining
CCN(CC)C(=O)CN(CCc1ccc(OC)c(OC)c1)C(=O)NCCc1c[nH]c2ccccc12 [CBK158741] | 98.354
CCOc1ccc(C(=O)N2CCN(S(=O)(=O)c3ccc(C)cc3C)CC2)cn1 [CBK298313] | 36.4697
Cc1oc(C2CC2)cc1C(=O)N1CCC(c2ccncc2)CC1 [CBK283514] | 78.0591
CN(CC1CCCN(C(=O)Nc2cccc(Cl)c2)C1)C(=O)OC(C)(C)C (stereo not drawn) [CBK305597] | 20.6232
CC(NC(=O)C1CCN(CCOc2ccccc2)CC1)c1ccccc1 (stereo not drawn) [CBK148610] | 96.4332
O=C(NC1CC1)[C@H]1C=CCN1C(=O)c1cccs1 [CBK284324] | 86.131
CCn1c(CN2CCOCC2)nnc1SCC(=O)Nc1cc(C)cc(C)c1 [CBK270258] | 112.592
Cc1csc(-c2cn3ccnc3c(N3CCN(c4ccccn4)CC3)n2)c1 [CBK066530] | 65.5957
COCCNc1nc(-c2ccccc2OC)ccc1C(=O)N1CCN(C)CC1 [CBK105950] | 107.864
O=S(=O)(Nc1cc(O[C@@H]2CCNC2)c2occc2c1)c1cc(F)c(Br)cc1F [CBK073943C] | 80.0683
Nc1nc(SCc2cccc([N+](=O)[O-])c2)n[nH]1 [CBK268688] | 66.2386
O=C(CN1CCN(c2ccccn2)CC1)N1c2ccccc2Sc2ccc(C(F)(F)F)cc21 [CBK268835G] | 105.433
CC(=O)N1CCc2c([nH]c3c(C)cccc23)C12CCN(C/C=C\c1ccccc1)C2 (stereo not drawn) [CBK040414] | 76.4073
CCc1nccn1CCC(=O)NC1CCN(Cc2ccncc2)CC1 [CBK306813] | 62.2981
COc1ccc2[nH]c(-c3cncn3CCCC(C)(C)CO)cc2c1 [CBK281778] | 84.3915
c1ccc(COC(c2ccccc2)c2nc3ccccc3n2Cc2ccccc2)cc1 (stereo not drawn) [CBK267311] | 58.6523
COc1ccc2c(c1)C1(CC(=O)N(C)C1=O)C(=O)N2C (stereo not drawn) [CBK075146] | 80.7322
COc1ccc(-c2noc([C@@H]3Cc4[nH]cnc4CN3C(=O)CCC(=O)O)n2)cc1 [CBK288967] | 81.2256
O=C(OCc1ccc(S(=O)(=O)N2CCOCC2)cc1)c1cc(-c2ccccc2)nc2ccccc12 [CBK267411] | 101.623
CCc1nc2ccccc2n1CC(=O)N(CCC#N)Cc1cccnc1 [CBK304892] | 67.6538
CCOCCNC(=O)c1coc(COc2ccc3sc(C)nc3c2)n1 [CBK306805] | 38.8414
O=C(O)CNCc1ccc(-c2ccc(Cl)cc2)o1 [CBK287258] | 121.055
Cc1ccc(S(=O)(=O)Nc2cc(Sc3nc(C)cc(C)n3)c(O)c3ccccc23)cc1 [CBK263313] | 93.2576
CCN(CC)C(=O)c1ccccc1NS(=O)(=O)c1cc(Br)ccc1OC [CBK045422] | 80.9543
COc1cc(OC)cc(C(=O)OCc2ccc(F)cc2)c1 [CBK267996] | 104.398
O=C(CN1CCCCC1)Nc1ccc(S(=O)(=O)N2CCOCC2)cc1 [CBK265577] | 105.468

— paper PMC12040169 (PLOS Biology, 2025)
